# Assay results taken from the supplement of paper PMC3334620.
# In all, about 33,000 sequences were measured (“E-score (-0.5 to 0.5)”: median about -0.012, highest 2% from about 0.27 on). This is one part of the list.
# Target: T1, Vhr1 (UniProt P40522)
# T1 sequence: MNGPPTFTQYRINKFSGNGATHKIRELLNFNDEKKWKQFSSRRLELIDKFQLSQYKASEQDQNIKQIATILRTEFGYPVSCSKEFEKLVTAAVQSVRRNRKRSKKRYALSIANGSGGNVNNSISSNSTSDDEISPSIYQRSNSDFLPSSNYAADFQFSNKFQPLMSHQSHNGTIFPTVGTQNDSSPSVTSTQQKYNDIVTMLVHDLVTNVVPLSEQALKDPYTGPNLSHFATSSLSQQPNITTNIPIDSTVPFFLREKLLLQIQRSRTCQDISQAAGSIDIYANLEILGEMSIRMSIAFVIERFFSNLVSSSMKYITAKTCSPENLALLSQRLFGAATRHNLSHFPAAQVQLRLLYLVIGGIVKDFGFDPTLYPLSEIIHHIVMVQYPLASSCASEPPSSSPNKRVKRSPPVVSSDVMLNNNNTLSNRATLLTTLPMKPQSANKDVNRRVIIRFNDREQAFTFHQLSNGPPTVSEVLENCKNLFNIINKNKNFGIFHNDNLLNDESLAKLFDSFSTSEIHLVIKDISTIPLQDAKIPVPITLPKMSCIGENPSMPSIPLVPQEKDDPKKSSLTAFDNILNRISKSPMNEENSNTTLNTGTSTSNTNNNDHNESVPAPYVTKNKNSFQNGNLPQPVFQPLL
# Test: PBM E-score (8-mer binding enrichment) (E-score (-0.5 to 0.5)); higher = stronger / more preferred TF binding; most listed sequences are background and not binding sites
# Conditions: protein concentration: 200 nM; construct: GST-full length
# Description: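 Universal 'all 10-mer' protein binding microarrays (Agilent AMADID 015681) probed with GST-tagged S. cerevisiae TFs (full-length or DBD) made by in vitro transcription/translation (PURExpress), about 100-200 nM. Bound TF was detected with fluorescent anti-GST. Each ungapped 8-mer (which stands for itself and its reverse complement) is scored by the PBM enrichment score (E-score), a modified Wilcoxon-Mann-Whitney statistic from -0.5 to +0.5, computed with the Universal PBM Analysis Suite. Scale: above 0.35 generally sequence-specific binding.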
row,Sequence,PBM E-score
1,CTAATCGC,0.0314
2,GGTGGGTA,0.159
3,CGCGACCA,0.245
4,CACGATTA,0.125
5,ATCCTTCG,-0.0337
6,GATGGCAC,-0.127
7,AGTCTGAC,0.148
8,AAAACTGA,-0.182
9,ATTGCGGA,0.125
10,CCGCAAGG,-0.193
11,CTAACGCA,-0.137
12,GAGTCCAC,0.197
13,ACTCGAAT,-0.049
14,CGTAGCGA,-0.00349
15,AGATTATA,-9e-05
16,ATTCTCCG,-0.00042
17,AAACACGA,-0.161
18,CACACGAG,0.155
19,ATTTTGTA,0.0819
20,TCAGCGAA,-0.0705
21,CAGCTTCA,-0.0908
22,ATATAGAC,0.031
23,CACCGTAA,0.0211
24,CCCCAGAC,-0.174
25,ACGCAACG,0.0366

row,Sequence,PBM E-score
1,AAAACTCG,-0.0315
2,TCACTGAA,0.0867
3,CATCTCTC,0.0645
4,AGTCGTTC,0.0102
5,AGATGGAT,0.0323
6,ACTCAAAA,0.182
7,CACCTCGA,0.111
8,CCCAGGTC,-0.211
9,ATTCTTAC,-0.00122
10,CCTGCGCC,0.0768
11,ATTAGAGG,-0.169
12,CTGCAATC,0.136
13,TAAGATGA,-0.0629
14,ATCCGTAG,-0.084
15,GACAATAC,0.0584
16,CCTCGACA,-0.029
17,CTGTCAGA,0.00518
18,CTACAGTA,0.16
19,GGAAATAC,-0.217
20,AGCGTTAC,0.0402
21,ATGGAGAA,-0.00736
22,AGTCCGAC,0.193
23,AGAACGGA,-0.209
24,AAGGGTCG,-0.166
25,GTAGTGAC,0.217

row,Sequence,PBM E-score
1,CGCATCCA,0.049
2,AGGCATTA,-0.214
3,CATCGACG,0.0693
4,GGCTGTAA,-0.109
5,CGGGGTCC,-0.227
6,AGATCTCA,-0.042
7,GCTCGATA,0.0314
8,GAGAACGA,-0.0856
9,AAACAACA,-0.0202
10,CGATTATC,0.0945
11,ACGCCACC,0.0236
12,ATAATTTG,-0.0159
13,TCTGAAGA,-0.212
14,TCTCTGCA,-0.115
15,CCACATCG,0.127
16,CGGGGATA,0.0148
17,AAGTTGTA,0.0509
18,AGACATCA,0.169
19,CAGGGTTA,-0.0475
20,ACTGTCAC,-0.00022
21,AGGTGTTA,-0.164
22,CGACGTCC,-0.0634
23,ACAATAAA,-0.0918
24,CCCGTTAA,-0.111
25,GCTCGAGA,-0.207

row,Sequence,PBM E-score
1,ACGACGCT,-0.0624
2,ATAGCTAC,0.0717
3,AACATTGG,-0.149
4,GCCGTTGA,0.0609
5,GCTTATGA,-0.101
6,GTTGTACA,-0.0526
7,GGCCATGA,0.136
8,TCTTTTAA,-0.286
9,CTCTCCAA,0.064
10,ATGGCACA,-0.0192
11,CCGTTGAG,-0.162
12,AGTTGGGC,0.159
13,GGTTTTTA,-0.0977
14,GACCGAAA,-0.034
15,CCGCGGGA,0.213
16,ACCGTAAG,-0.08
17,AAGTCTCG,-0.257
18,CAAAAGTA,-0.202
19,ACTAACTA,0.112
20,CCGGAGGA,-0.0305
21,ATGGGCTA,0.0163
22,ACACGGCC,0.0168
23,CCAACCAA,-0.0857
24,CGCTGAGC,0.00537
25,CCTACGAC,0.0977

row,Sequence,PBM E-score
1,TCGTAAAA,-0.175
2,CTATGGCA,-0.132
3,TCATGCCA,0.0541
4,CAGCCCTC,-0.133
5,AGGCGGTG,0.0779
6,ACTAGCCG,-0.0659
7,CCTCTGCA,-0.109
8,GGAGGAAC,-0.154
9,CGGTCAAA,-0.0217
10,ATAAGGCG,-0.0195
11,AGCTCAAA,-0.0815
12,CGACGTGA,0.0649
13,ATCTCAAG,-0.0114
14,AGGCTTGA,-0.0908
15,CAAGACTC,0.295
16,CCGGTCAA,-0.116
17,CGGCACCC,-0.117
18,CATCGCGA,0.0654
19,CCAGTTCA,-0.00903
20,GAGGATAC,-0.162
21,CCTCAGTA,-0.106
22,AATCATTA,0.222
23,CAGGTGGC,0.072
24,ATAGTTGC,0.127
25,ACTTGAAT,-0.0462

row,Sequence,PBM E-score
1,ACCAGCCG,0.135
2,CGTAGTCA,0.372
3,TACAGAAA,0.0107
4,CGACCTCC,0.163
5,AGGGGAAG,0.00899
6,CCTGTGTC,0.192
7,CGTAGTAC,0.023
8,GATCGGGA,-0.124
9,CTAAATAG,-0.015
10,AGTCAATG,0.129
11,AAAGGGGT,-0.181
12,CCTACTTC,-0.0854
13,ATATACAC,0.158
14,AACAACGG,-0.0109
15,CCGCTCAA,-0.061
16,GCCTCCGA,-0.0639
17,ATCAGCGC,-0.0706
18,AGACACTG,0.116
19,CTGCATCA,0.176
20,CAGCCCCC,-0.2
21,CTGGGAGA,-0.0702
22,AGCTGGGG,0.0821
23,GTACCGAA,-0.238
24,CGCACCAA,0.143
25,ACGAATTC,-0.13

row,Sequence,PBM E-score
1,GGGATCGA,0.105
2,ACCGTACC,-0.0234
3,GTCCATCA,-0.104
4,GTAAGGCA,-0.0893
5,AGGTCCCG,-0.00127
6,CACGGCTG,-0.0137
7,CCCCCGGC,0.1
8,ATATGGAG,0.0345
9,GATCCCGA,0.126
10,ATGCAGAG,-0.0311
11,ATGGCGAA,0.0912
12,GACAACTC,0.077
13,ACCCCCTC,-0.281
14,CCATGGTC,0.149
15,AAAAACAA,-0.0531
16,CGTCCTCA,-0.101
17,GGCTGAGA,0.0217
18,CGAGCACA,0.119
19,GAATGTAA,-0.0483
20,CGCGCTAA,0.221
21,AGCCTTTG,-0.12
22,AACGGAAT,-0.0689
